Experimental data as given in PubChem BioAssay AID624296 (National Center for Advancing Translational Sciences (NCATS), 2012).
Out of some 350,000 compounds screened, about 9,900 (2.8%) were called active. The inconclusive results got no clear call from the source; some entries with a clear call stand among them for comparison. Calls come from the whole dose curve; as a rule, active = well fitted activation curve with a large enough effect; inconclusive = small, poorly fitted or top-dose-only effect; inactive = no such curve, though single readings can be large or run the other way. No potency is given beside an inconclusive call; the fits are too rough.

assay: A quantitative high throughput screen for small molecules that induce DNA re-replication in MCF 10a normal breast cells.; note: nearly all actives have a fitted effect of over 50% in size; for activity, positive = re-replication: % of control where 0% means no effect; settings: MCF 10A DNA re-replication, Hoechst nuclear intensity, 48 h; activity, positive = re-replication: at 46.1 µM (top of the series)
Potency is the fitted concentration of half-maximal effect; tags give direction and shape of the fitted curve.

| Structure (SMILES) | Potency | activity, positive = re-replication |
| --- | --- | --- |
| COC(=O)c1[nH]c2ccccc2c1NC(=O)CN1CCN(c2cccc(Cl)c2)CC1 | inconclusive [activator, single point] | – |
| CCCN(CCC)c1nc2ccccc2nc1C(C#N)C(=O)OC(C)COC (stereo not drawn) | inconclusive [activator, single point] | – |
| COc1cc(C(=O)OC(C)CN2C(C)CCCC2C)cc(OC)c1OC (stereo not drawn) | – | inactive: -2.33% |
| O=S(=O)(Nc1ccc2ccccc2c1)N1CCCCC1 | inconclusive [activator, single point] | – |
| O=C(N/N=C/c1ccc[nH]1)c1ccccc1OCc1ccc(F)cc1 | – | inactive: 7% |
| CCOc1ccc(C(=O)CCN2CCCCC2)cc1 | inconclusive [activator, single point] | – |
| N#C/C(=C\c1ccncc1)c1nc2ccccc2c(=O)[nH]1 | inconclusive [activator, single point] | – |
| CCn1cc(C(=O)O)c(=O)c2cc(F)c(N3CCN(C(=S)NC(=O)c4ccccc4Br)CC3)cc21 | – | inactive: -0.327% |
| Cc1ccc(S(=O)(=O)N2CCOCC2)cc1C(=O)N1CCN(c2ccc(C(F)(F)F)cn2)CC1 | inconclusive [activator, partial curve, poor fit] | – |
| CCOc1ccc(OCc2cccc(C(=O)N/N=C/c3cccnc3)c2)cc1 | inconclusive [activator, single point] | – |
| CCC(C)c1ccc(OCCn2cc(/C=N/NC(=O)CSc3nnc(C)s3)c3ccccc32)cc1 (stereo not drawn) | inconclusive [activator, single point] | – |
| CC(=O)C1CCC2C3CC(C)=C4CC(O)CCC4(C)C3CCC12C (stereo not drawn) | inconclusive [activator, partial curve, poor fit] | – |
| CCOC(=O)c1cc(-c2ccccc2)n(CC(=O)Nc2ccc(OCC)cc2)c1C | inconclusive [activator, single point] | – |
| Cn1cc(CCC(=O)NCc2ccc(Cl)cc2)c2ccccc21 | – | inactive: 0.0327% |
| Cc1ccc(CSCCNC(=O)c2ccc(C)cc2)cc1 | inconclusive [activator, single point] | – |
| COc1ccc(C(=O)N(Cc2ccccc2)c2cccc(C)c2)cc1 | inconclusive [activator, partial curve, poor fit] | – |
| COC(=O)C1=C(C)N(c2ccc(F)c(Cl)c2)C(=O)C1 | inconclusive [activator, single point] | – |
| CN(C)c1nc(C=C(C#N)C#N)c(Cl)n1-c1ccc(F)cc1 | inconclusive [activator, full curve, poor fit] | – |
| O=C1/C(=C/c2ccccc2)N=C(N2CCOCC2)N1c1cccc(Cl)c1 | inconclusive [activator, single point] | – |
| CN(C)Cc1c(C(=O)N/N=C/c2cccc(OCc3ccccc3)c2)nnn1-c1nonc1N | inconclusive [activator, single point] | – |
| Oc1cc(Nc2cccnc2)cc2cccnc12 | inconclusive [activator, full curve, poor fit] | – |
| COC(=O)c1ccccc1SC(CC(=O)c1ccccc1)c1ccc(F)cc1 (stereo not drawn) | inconclusive [activator, single point] | – |
| Cn1cnc(C(=O)NCc2ccccc2)c1C(=O)NCc1ccccc1 | – | inactive: 26.1% |

| Structure (SMILES) | Potency | activity, positive = re-replication |
| --- | --- | --- |
| Cc1ccc(N(C)S(=O)(=O)c2cc(-c3cnc(C4CC4)o3)ccc2C)cc1 | active: 23.1 µM | – |
| C=CCC(=O)NC1CC(C)(C)Cc2c1cnn2-c1ccc(C)cc1 (stereo not drawn) | – | inactive: 2.47% |
| COc1ccc(-c2cc(C#N)nc(NN)n2)cc1 | inconclusive [activator, partial curve] | – |
| Nc1n[nH]c(C2CC2)c1N=Nc1ccc(Cl)c(Cl)c1 | inconclusive [activator, single point] | – |
| Cc1cccc2cc3c(NC(=O)c4ccccn4)nn(C)c3nc12 | active: 8.2 µM | – |
| CN(CC(=O)Nc1ccc(OC(F)(F)F)cc1)C(=O)/C=C/c1ccco1 | – | inactive: 18.8% |
| COc1cc(C(=O)N(Cc2ccco2)Cc2cc3ccccc3[nH]c2=O)cc(OC)c1OC | inconclusive [activator, partial curve, poor fit] | – |
| CSc1nnc(-c2sc3cc(Cl)ccc3c2Cl)n1C | inconclusive [activator, single point] | – |
| O=[N+]([O-])c1ccccc1/C=N/n1c(C2CCCCC2)n[nH]c1=S | inconclusive [activator, partial curve, poor fit] | – |
| CN(C)/C=C/C(=O)c1ccc2noc(-c3ccccc3)c2c1 | active: 20.6 µM | – |
| Nc1nc(-c2ccc3c(c2)NC(=O)CO3)cs1 | – | inactive: 11.1% |
| Nc1cccc2c1C(=O)N(Cc1nnc(-c3ccccc3Br)o1)C2=O | inconclusive [activator, single point] | – |
| O=S(=O)(Nc1cc(Sc2cccc3cccnc23)c(O)c2ccccc12)c1ccccc1 | active: 23.1 µM | – |
| COc1ccc(-c2c[n+](CC(=O)OC3CC(C)CCC3C(C)C)c3n2CCC3)cc1 (stereo not drawn) | active: 0.82 µM | – |
| Cc1cc(C)c(S(=O)(=O)Nc2ccccc2-c2ccccc2)c(C)c1 | inconclusive [activator, single point] | – |
| CN(C)S(=O)(=O)c1cc(NC(=O)c2ccc(-n3ccnc3)c([N+](=O)[O-])c2)ccc1Cl | inconclusive [activator, single point] | – |
| COc1ccc(C(=O)/C=C/Nc2cc(C)on2)cc1 | – | inactive: -5.96% |
| N#Cc1c(N)n(CCCN2CCOCC2)c2nc3ccccc3nc12 | inconclusive [activator, single point] | – |
| CCCCCn1c(N2CCC(C(N)=O)CC2)nc2c1c(=O)[nH]c(=O)n2C | inconclusive [activator, partial curve, poor fit] | – |
| CC12CCC(C(=O)N3CCC(Cc4ccccc4)CC3)(C(=O)C1=O)C2(C)C (stereo not drawn) | – | inactive: 13.1% |
| CN(C)Cc1nc2c(c(=O)[nH]1)C1(CCCCC1)Cc1ccccc1-2 | inconclusive [activator, single point] | – |
| COc1ccc(/C(C)=N/NC(=O)CNC(=O)/C=C/c2ccccc2OC)cc1 | – | inconclusive: -23.5% [activator] |
| COc1ccc(C(CNC(=O)c2cccc(S(=O)(=O)N3CCCCC3)c2)N2CCCC2)cc1 (stereo not drawn) | – | inactive: -0.548% |

| Structure (SMILES) | Potency | activity, positive = re-replication |
| --- | --- | --- |
| Cc1onc(-c2c(Cl)cccc2Cl)c1C(=O)N/N=C(\N)COc1ccc(Cl)cc1 | inconclusive [activator, partial curve, poor fit] | – |
| Cc1ccc(O)c2ncccc12 | inconclusive [activator, full curve] | – |
| COC(=O)C1=C(O)/C(=C\c2ccc(OCC(=O)Nc3ccccc3OC)cc2)N=C1C | – | inactive: -0.453% |
| O=C(/C=C/c1ccc(S(=O)(=O)N2CCOCC2)cc1)N1CCN(c2ccc(F)cc2)CC1 | – | inactive: -0.627% |
| Cc1ccc(S(=O)(=O)N(C)c2ccc(C(=O)Nc3cccc(C)n3)cc2)cc1 | inconclusive [activator, partial curve, poor fit] | – |
| COC(=O)c1ccc(NC(=O)COC(=O)C2=NN(c3ccccc3)C(=O)CC2)cc1 | inconclusive [activator, single point] | – |
| Cc1cc(N)c2cc(NC(=O)/C=C/c3ccccc3Cl)ccc2n1 | inconclusive [activator, single point] | – |
| O=C(NCC1CCCO1)c1ccc([N+](=O)[O-])o1 (stereo not drawn) | inconclusive [activator, partial curve, poor fit] | – |
| CC(OCC(O)CNCC1COc2ccccc2O1)c1ccc(Cl)cc1 (stereo not drawn) | inconclusive [activator, single point] | – |
| CN(C)c1ccc(NC(=O)CN2C(=O)CC(c3ccccc3)=Nc3ccccc32)cc1 | inconclusive [activator, single point] | – |
| CCC(C)(C)NC(=O)C(c1ccccc1F)N(C(=O)c1ccn[nH]1)c1ccccc1 (stereo not drawn) | inconclusive [activator, partial curve, poor fit] | – |
| COc1ccc(/C=C(\C#N)c2nc3ccccc3[nH]2)cc1O | inconclusive [activator, single point] | – |
| CCCCNc1nc2cccnc2s1 | – | inactive: -1.66% |
| COC(=O)CC(=O)CSc1nc2c(cc1C#N)CCC2 | active: 1.64 µM | – |
| COc1ccc(S(=O)(=O)N2CCOC23CCN(C(=O)c2ccccc2Br)CC3)cc1 | inconclusive [activator, single point] | – |
| O=C(COC(=O)/C=C/c1cccc(C(F)(F)F)c1)NCc1cccs1 | inconclusive [activator, partial curve, poor fit] | – |
| COc1ccc(Nc2cc(C)c3ccc(O)cc3n2)cc1 | inconclusive [activator, single point] | – |
| CC(C)(C)c1ccc(NC(=O)COC(=O)c2ccc(CN3CCCC3=O)cc2)cc1 | – | inactive: -3.47% |
| Cc1[nH]n(C)c(=O)c1[N+](=O)[O-] | inconclusive [activator, partial curve] | – |
| C/C(=N\NC(=O)c1ccccc1OCCOc1ccccc1)c1ccccc1F | inconclusive [activator, full curve, poor fit] | – |
| Cc1ccc(SCC(=O)NCc2ccccc2)cc1 | inconclusive [activator, single point] | – |
| O=C1C(Cl)=C(NCCc2ccccc2)C(=O)c2ccccc21 | inconclusive [activator, single point] | – |
